How the values were obtained:
VEGF-A165 [1] = target: T1, VEGF-A165 (UniProt P15692-4 27-191); assay: ELISA, VEGF coated at 100 ng/well, HRP goat anti-human Fab detection
T1 construct: Isoform VEGF-A165; also called VEGF蛋白
T1 sequence (looked up): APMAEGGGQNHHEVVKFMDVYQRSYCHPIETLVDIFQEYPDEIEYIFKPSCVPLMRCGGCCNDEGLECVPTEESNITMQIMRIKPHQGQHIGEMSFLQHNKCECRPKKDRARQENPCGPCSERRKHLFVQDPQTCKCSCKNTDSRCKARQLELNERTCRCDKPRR

TGF-β1蛋白 [2] = target: T2, TGF-β1蛋白 (UniProt P01137 in part); assay: ELISA, TGF-β1 coated at 100 ng/well, HRP goat anti-human Fab detection
T2 construct: Bought protein

TGF-β1蛋白 [3] = target: T2, TGF-β1蛋白; assay: cell-based or functional assay
T2 sequence (P01137 279-390 limits assumed): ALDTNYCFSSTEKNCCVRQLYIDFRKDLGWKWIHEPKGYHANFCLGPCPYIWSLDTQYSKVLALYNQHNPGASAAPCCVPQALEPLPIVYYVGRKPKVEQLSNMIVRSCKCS

VEGF-A165 [4] = target: T1, VEGF-A165; assay: cell-based or functional assay

B1: 抗TGF-β/VEGF双功能融合蛋白TV01 (other)
heavy: QVQLVQSGAEVKKPGASVKVSCKASGYIFITYWMNWVRQAPGQGLEWIGQIFPASGSTNYNEMFEGRATLTVDTSTSTAYMELSSLRSEDTAVYYCARGDGNYALDAMDYWGQGTLVTVSSASTKGPSVFPLAPCSRSTSESTAALGCLVKDYFPEPVTVSWNSGALTSGVHTFPAVLQSSGLYSLSSVVTVPSSSLGTKTYTCNVDHKPSNTKVDKRV[letters of human IgG4 Fc with S228P (EU numbers) omitted]AGGGGSGGGGSDTGRPFVEMYSEIPEIIHMTEGRELVIPCRVTSPNITVTLKKFPLDTLIPDGKRIIWDSRKGFIISNATYKEIGLLTCEATVNGHLYKTNYLTHRQTN
light: DIVLTQSPASLAVSPGQRATITCRASESVDSYGNSFMHWYQQKPGQPPKLLIYLASNLESGVPARFSGSGSGTDFTLTINPVEADDTANYYCQQNNEDPLTFGGGTKVELKRTVAAPSVFIFPPSDEQLKSGTASVVCLLNNFYPREAKVQWKVDNALQSGNSQESVTEQDSKDSTYSLSSTLTLSKADYEKHKVYACEVTHQGLSSPVTKSFNRGEC
notes: Humanised anti-TGF-β IgG 1D11-Hu with the VEGFR1 D2 domain joined to the C-terminus of the heavy chain; Light chain 3 follows by logic; heavy chain 1 rather than 5 rests on list order only
For B1, the EC50 (VEGF-A165 [1]) was 478 pM, the EC50 (TGF-β1蛋白 [2]) was 188 pM and the “SMAD3报告基因抑制实验 IC50” value (TGF-β1蛋白 [3]) was 388 pM.

B2: 抗TGF-β/VEGF双功能融合蛋白TV02 (other)
heavy: DTGRPFVEMYSEIPEIIHMTEGRELVIPCRVTSPNITVTLKKFPLDTLIPDGKRIIWDSRKGFIISNATYKEIGLLTCEATVNGHLYKTNYLTHRQTNTIGGGGSGGGGSGGGGSGGGGSQVQLVQSGAEVKKPGASVKVSCKASGYIFITYWMNWVRQAPGQGLEWIGQIFPASGSTNYNEMFEGRATLTVDTSTSTAYMELSSLRSEDTAVYYCARGDGNYALDAMDYWGQGTLVTVSSASTKGPSVFPLAPCSRSTSESTAALGCLVKDYFPEPVTVSWNSGALTSGVHTFPAVLQSSGLYSLSSVVTVPSSSLGTKTYTCNVDHKPSNTKVDKRV[letters of human IgG4 Fc with S228P (EU numbers) omitted]
light: DIVLTQSPASLAVSPGQRATITCRASESVDSYGNSFMHWYQQKPGQPPKLLIYLASNLESGVPARFSGSGSGTDFTLTINPVEADDTANYYCQQNNEDPLTFGGGTKVELKRTVAAPSVFIFPPSDEQLKSGTASVVCLLNNFYPREAKVQWKVDNALQSGNSQESVTEQDSKDSTYSLSSTLTLSKADYEKHKVYACEVTHQGLSSPVTKSFNRGEC
notes: Anti-TGF-β IgG 1D11-Hu with the VEGFR1 D2 domain joined to the N-terminus of the heavy chain
With B2 the EC50 (VEGF-A165 [1]) was 394 pM, the EC50 (TGF-β1蛋白 [2]) was 213 pM and the “SMAD3报告基因抑制实验 IC50” value (TGF-β1蛋白 [3]) was 177 pM.

B3: 抗TGF-β/VEGF双功能融合蛋白TV03 (other)
heavy: QVQLVQSGAEVKKPGASVKVSCKASGYTFTSEWMNWVRQAPGQGLEWMGQIFPALGSTNYNEMYEGRVTMTTDTSTSTAYMELRSLRSDDTAVYYCARGIGNYALDAMDYWGQGTLVTVSSASTKGPSVFPLAPCSRSTSESTAALGCLVKDYFPEPVTVSWNSGALTSGVHTFPAVLQSSGLYSLSSVVTVPSSSLGTKTYTCNVDHKPSNTKVDKRV[letters of human IgG4 Fc with S228P (EU numbers) omitted]AGGGGSGGGGSDTGRPFVEMYSEIPEIIHMTEGRELVIPCRVTSPNITVTLKKFPLDTLIPDGKRIIWDSRKGFIISNATYKEIGLLTCEATVNGHLYKTNYLTHRQTN
light: DIQMTQSPSSLSASVGDRVTITCRASESVDFYGNSFMHWYQQKPGKAPKLLIYLASNLESGVPSRFSGSGSGTDFTLTISSLQPEDFATYYCQQNIEDPLTFGGGTKVEIKRTVAAPSVFIFPPSDEQLKSGTASVVCLLNNFYPREAKVQWKVDNALQSGNSQESVTEQDSKDSTYSLSSTLTLSKADYEKHKVYACEVTHQGLSSPVTKSFNRGEC
notes: heavy chain 7 rather than 11 rests on list order
With B3 the EC50 (VEGF-A165 [1]) was 340 pM, the EC50 (TGF-β1蛋白 [2]) was 174 pM and the “阻断VEGF与受体KDR结合的细胞实验 IC50 (luminescence)” value (VEGF-A165 [4]) was 96 pM. For the same binder, the “SMAD3报告基因抑制实验 IC50” value (TGF-β1蛋白 [3]) was 255 pM.

B4: 抗TGF-β/VEGF双功能融合蛋白TV04 (other)
heavy: DTGRPFVEMYSEIPEIIHMTEGRELVIPCRVTSPNITVTLKKFPLDTLIPDGKRIIWDSRKGFIISNATYKEIGLLTCEATVNGHLYKTNYLTHRQTNTIGGGGSGGGGSGGGGSGGGGSQVQLVQSGAEVKKPGASVKVSCKASGYTFTSEWMNWVRQAPGQGLEWMGQIFPALGSTNYNEMYEGRVTMTTDTSTSTAYMELRSLRSDDTAVYYCARGIGNYALDAMDYWGQGTLVTVSSASTKGPSVFPLAPCSRSTSESTAALGCLVKDYFPEPVTVSWNSGALTSGVHTFPAVLQSSGLYSLSSVVTVPSSSLGTKTYTCNVDHKPSNTKVDKRV[letters of human IgG4 Fc with S228P (EU numbers) omitted]
light: DIQMTQSPSSLSASVGDRVTITCRASESVDFYGNSFMHWYQQKPGKAPKLLIYLASNLESGVPSRFSGSGSGTDFTLTISSLQPEDFATYYCQQNIEDPLTFGGGTKVEIKRTVAAPSVFIFPPSDEQLKSGTASVVCLLNNFYPREAKVQWKVDNALQSGNSQESVTEQDSKDSTYSLSSTLTLSKADYEKHKVYACEVTHQGLSSPVTKSFNRGEC
notes: heavy chain 11 rather than 7 rests on list order
B4 was tested, and the EC50 (VEGF-A165 [1]) was 381 pM, the EC50 (TGF-β1蛋白 [2]) was 221 pM and the “阻断VEGF与受体KDR结合的细胞实验 IC50 (luminescence)” value (VEGF-A165 [4]) was 92 pM. For the same binder, the “SMAD3报告基因抑制实验 IC50” value (TGF-β1蛋白 [3]) was 221 pM.

B5: 抗TGF-β/VEGF双功能融合蛋白TV05 (other)
heavy: QVQLVQSGAEVKKPGASVKVSCKASGYTFTSEWMNWVRQAPGQGLEWMGQIFPALGSTNYNEMYEGRVTMTTDTSTSTAYMELRSLRSDDTAVYYCARGIGNYALDAMDYWGQGTLVTVSSASTKGPSVFPLAPCSRSTSESTAALGCLVKDYFPEPVTVSWNSGALTSGVHTFPAVLQSSGLYSLSSVVTVPSSSLGTKTYTCNVDHKPSNTKVDKRV[letters of human IgG4 Fc with S228P (EU numbers) omitted]
light: DIQMTQSPSSLSASVGDRVTITCRASESVDFYGNSFMHWYQQKPGKAPKLLIYLASNLESGVPSRFSGSGSGTDFTLTISSLQPEDFATYYCQQNIEDPLTFGGGTKVEIKRTVAAPSVFIFPPSDEQLKSGTASVVCLLNNFYPREAKVQWKVDNALQSGNSQESVTEQDSKDSTYSLSSTLTLSKADYEKHKVYACEVTHQGLSSPVTKSFNRGECGGGGSGGGGSGGGGSGGGGSDTGRPFVEMYSEIPEIIHMTEGRELVIPCRVTSPNITVTLKKFPLDTLIPDGKRIIWDSRKGFIISNATYKEIGLLTCEATVNGHLYKTNYLTHRQTN
B5 was tested, and the EC50 (VEGF-A165 [1]) was 393 pM, the EC50 (TGF-β1蛋白 [2]) was 187 pM and the “SMAD3报告基因抑制实验 IC50” value (TGF-β1蛋白 [3]) was 341 pM.
